# Data taken from the supplement of paper PMC11417369.
# ± gives the standard deviation of the averaged measurements. Some of the results follow.
# Test system: PfAP2-EXP AP2 domain (GST-tagged)
# Experiment: gcPBM binding intensity (ln(normalized median fluorescence intensity)); higher = stronger DNA binding
# Outline: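 After 1 h on an Agilent 4 × 180k array of primer-extended double-stranded 36-bp intergenic genomic probes and negative controls, bound GST-tagged P. falciparum DNA-binding domains were detected with Alexa488 anti-GST antibody and scanned at 488 nm. The domains had been expressed in E. coli, and binding took place in 1× PBS with 1% milk, 0.2 mg/ml BSA, 0.5% salmon testes DNA and 0.03% Triton X-100. Binding intensity is the highest Masliner-normalised natural-log median intensity across replicate spots of either probe orientation.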
row,Sequence,gcPBM binding intensity (ln)
1,GAACATTTCACATGGTGTACTCTCTTTTTCAAATAA [XGTACX_site1632],8.51 ± 0.4
2,TCAATATACCAAAAATGTACAAAAAATAAACAATAT [XGTACX_site8251],9.05 ± 0.54
3,TTTATATTATAATATAATAATGATCTTAATTTTTTT [XGTACX_negctrl_site100],8.21 ± 0.3
4,TATAACAAGTAATGTTGTACATTATATTATGTAATA [XGTACX_site2769],8.17 ± 0.26
5,TTTTTTATTATTATGTGTACGAATATGTGCATATAA [XGTACX_site1364],8.52 ± 0.14
6,TAAAAAAAAAAAATGTGTACATATTATATATATCTT [XGTACX_site2615],8.22 ± 0.3
7,ATGAGTATACTAAGAACACACAAGTTACTTGGTGTT [CACACA_site4981],8.64 ± 0.4
8,GTTACACAAACAAACACACACACACGCACGCACAAA [CACACA_site7191],8.73 ± 0.28
9,TTTTTTCTCTATATATGTACATATAAAAAATATATC [XGTACX_site6382],8.68 ± 0.26
10,CATATTATTTAAACATGTACTCACATATAAATATAA [XGTACX_site6096],8.39 ± 0.27
11,ATTTTATAATTTATATCACACACATATATATATAGT [CACACA_site7885],8.57 ± 0.33
12,TGTTTATAAATATAAAAAAATATATATATATATTAT [GTGCAC_negctrl_site247],8.18 ± 0.3
13,ACCATAACATGAATTACAGGAATTGAAAATGTTCCA [CACACA_negctrl_site649],8.25 ± 0.41
14,TATATATATATATTCACACATAAGATGAATAAAGTG [CACACA_site4225],9.91 ± 0.27
15,CAAAATTAATAAGTCACACACACATCTATAATATAT [CACACA_site6519],8.56 ± 0.6
16,TTCTTTATTTTTTCTACACACATTAGATATTCAAAG [CACACA_site7624],8.71 ± 0.32
17,GTATTATATATAAAAGTGCATATTTTTTTCCCTTAC,8.82 ± 0.18
18,GGTTACATTTTATTTTGTACATAAAAATTTTTATTT [XGTACX_site218],8.82 ± 0.34
19,ATAAAATTTTATATGGGTACATAATATAATATATAT [XGTACX_site8160],8.84 ± 0.41
20,ATATATATATATATATGTACACATATATTTCTTTTC [XGTACX_site3443],10 ± 0.47
21,TTTAAAAATTAATTCTGTACACATTTTTATTATATT [XGTACX_site4212],8.54 ± 0.39
22,AAATGATATAAATTATAAAATGGATTTTTTCCATTG [CACACA_negctrl_site420],7.86 ± 0.29
23,ATTCCTGGACCGTTCATGCACTTGCAGAACGTCCAT,8.47 ± 0.25
24,TTTATGAAATGTTGCACACAAAAAACAACATGTTTT [CACACA_site1440],8.44 ± 0.33
25,AAAAAAAAAAAAAGTGCACACGATTTAAGGCCTATA [CACACA_site2823],8.83 ± 0.13
